Some of the results follow. Rule as the data show it: active = 3.2 or more and inactive = the rest. The signal is at background level for most entries.
What was measured:
Experiment in all cases: enrichment score (SH2-bound / input frequency) (ratio); bacterial display of known human phosphotyrosine sites (pTyr-Var adds point mutants) read by sequencing; higher = stronger binding; tyrosines were phosphorylated by kinases first
Conditions in all cases: peptide library: pTyr-Var
SHP2 C-SH2 domain E139D = target: SHP2 C-SH2 domain E139D
[1] = target: SHP2 C-SH2 domain wild-type
SHP2 N-SH2 domain L43F = target: SHP2 N-SH2 domain L43F
SHP2 N-SH2 domain T42A = target: SHP2 N-SH2 domain T42A
SHP2 N-SH2 domain T52S = target: SHP2 N-SH2 domain T52S
[2] = target: SHP2 N-SH2 domain wild-type
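Also: displayed peptides selected on beads carrying the immobilized SH2 domain, with library peptides lacking any tyrosine serving as negative controls.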

Row | Binder | enrichment score (SHP2 C-SH2 domain E139D) | enrichment score [1] | enrichment score (SHP2 N-SH2 domain L43F) | enrichment score (SHP2 N-SH2 domain T42A) | enrichment score (SHP2 N-SH2 domain T52S) | enrichment score [2]
1 | GDFLSYREFHS [ERBIN_Y1107_YF] | inactive: 1.01 | inactive: 0.958 | inactive: 1.01 | inactive: 1.11 | inactive: 1.26 | inactive: 0.962
2 | AFDNLYFWDQD [ERBB2_Y1221_YF] | inactive: 1.07 | inactive: 1.06 | inactive: 1.06 | inactive: 0.749 | inactive: 0.887 | inactive: 0.893
3 | DKHGQYLIGHG [EPHB4_Y581] | inactive: 1.03 | inactive: 1.15 | inactive: 0.755 | inactive: 0.655 | inactive: 0.965 | inactive: 0.989
4 | NNHGNYIVLLG [ETFDH_Y172_R175L] | inactive: 1.15 | inactive: 1.26 | inactive: 1.07 | inactive: 1.44 | inactive: 1.33 | inactive: 0.886
5 | ALRASYTPSPA [ESS2_Y418] | inactive: 0.608 | inactive: 0.663 | inactive: 0.67 | inactive: 0.513 | inactive: 0.659 | inactive: 0.77
6 | GSETPYMDRTP [ESS2_Y335_V336M] | inactive: 0.387 | inactive: 0.479 | inactive: 0.373 | inactive: 0.48 | inactive: 0.456 | inactive: 0.594
7 | GSETPYVDRTP [ESS2_Y335] | inactive: 0.453 | inactive: 0.387 | inactive: 0.361 | inactive: 0.37 | inactive: 0.429 | inactive: 0.371
8 | FFCRWYRNRKS [EREG_Y144_YF] | inactive: 0.313 | inactive: 0.264 | inactive: 0.366 | inactive: 0.242 | inactive: 0.286 | inactive: 0.316
9 | ERMKVYVPTGF [EPHX1_Y393] | inactive: 0.878 | inactive: 0.82 | inactive: 0.893 | inactive: 0.774 | inactive: 0.802 | inactive: 0.804
10 | RAMRRYLERGE [ERBB3_Y680] | inactive: 0.232 | inactive: 0.19 | inactive: 0.247 | inactive: 0.253 | inactive: 0.238 | inactive: 0.245
11 | VDTLWYKFLKR [EPM2A_Y86_F84L] | inactive: 0.792 | inactive: 0.747 | inactive: 0.564 | inactive: 0.678 | inactive: 0.733 | inactive: 0.768
12 | RQLEIYRASRP [ERCC4_Y594] | inactive: 0.373 | inactive: 0.44 | inactive: 0.42 | inactive: 0.4 | inactive: 0.446 | inactive: 0.581
13 | DEEEEYEFMNR [ERBB3_Y1197_D1194E_YF] | inactive: 0.509 | inactive: 0.619 | inactive: 0.453 | inactive: 0.54 | inactive: 0.497 | inactive: 0.411
14 | DEEEEYEYMNR [ERBB3_Y1197_D1194E] | inactive: 0.327 | inactive: 0.558 | inactive: 0.481 | inactive: 0.374 | inactive: 0.452 | inactive: 0.465
15 | VDTFWYKFLKP [EPM2A_Y86_R91P] | inactive: 0.904 | inactive: 0.744 | inactive: 0.854 | inactive: 0.863 | inactive: 0.731 | inactive: 0.945
16 | DYDHSYYFIAT [ESD_Y262_G257D] | inactive: 0.597 | inactive: 1.1 | inactive: 0.614 | inactive: 0.755 | inactive: 0.648 | inactive: 0.742
17 | HGDSAYHSQRH [ERBB3_Y1132_R1127H] | inactive: 1.28 | inactive: 1.5 | inactive: 0.955 | inactive: 1.05 | inactive: 1.07 | inactive: 1.23
18 | YFCRWYRNRKS [EREG_Y144] | inactive: 0.282 | inactive: 0.302 | inactive: 0.249 | inactive: 0.228 | inactive: 0.219 | inactive: 0.209
19 | SPPPAYTPMSG [ERBB4_Y1056] | inactive: 0.604 | inactive: 0.452 | inactive: 0.561 | inactive: 0.537 | inactive: 0.491 | inactive: 0.593

Row | Binder | enrichment score (SHP2 C-SH2 domain E139D) | enrichment score [1] | enrichment score (SHP2 N-SH2 domain L43F) | enrichment score (SHP2 N-SH2 domain T42A) | enrichment score (SHP2 N-SH2 domain T52S) | enrichment score [2]
20 | ILDEAYVMAGA [ERBB2_Y772_V777A] | inactive: 0.95 | inactive: 0.723 | inactive: 0.896 | inactive: 0.661 | inactive: 0.941 | inactive: 0.879
21 | VDTFWYKFLKR [EPM2A_Y86] | inactive: 0.687 | inactive: 0.55 | inactive: 0.575 | inactive: 0.384 | inactive: 0.436 | inactive: 0.637
22 | DEDEEYEFMNR [ERBB3_Y1197_YF] | inactive: 0.407 | inactive: 0.387 | inactive: 0.329 | inactive: 0.372 | inactive: 0.41 | inactive: 0.395
23 | HGAKVYIDPFT [EPHB4_Y590_T587A] | inactive: 0.871 | inactive: 0.811 | inactive: 0.585 | inactive: 1.27 | inactive: 0.811 | inactive: 1.35
24 | RAMRRYLEWGE [ERBB3_Y680_R683W] | inactive: 0.251 | inactive: 0.262 | inactive: 0.208 | inactive: 0.224 | inactive: 0.229 | inactive: 0.214
25 | KRPAVYIDEEA [EPM2A_Y304] | inactive: 0.997 | inactive: 0.726 | inactive: 0.885 | inactive: 0.841 | inactive: 0.647 | inactive: 0.804
26 | LSDGPYSNPYE [EPOR_Y485] | inactive: 0.31 | inactive: 0.737 | inactive: 0.527 | inactive: 0.84 | inactive: 0.989 | inactive: 0.155
27 | RLQEGYDHSYY [ESD_Y258] | inactive: 0.672 | inactive: 0.633 | inactive: 0.636 | inactive: 0.658 | inactive: 0.526 | inactive: 0.883
28 | QYNMQYSSSAA [ERBB2IP_Y981_I979M] | inactive: 1.01 | inactive: 1.01 | inactive: 1.47 | inactive: 1.12 | inactive: 0.78 | inactive: 1.23
29 | TYVVLYDAELT [ERCC4_Y581_R576T] | inactive: 2.21 | inactive: 2 | active: 3.52 | active: 5.1 | active: 3.59 | inactive: 1.85
30 | GPGGDYAAMGA [ERBB3_Y1276] | inactive: 0.554 | inactive: 0.457 | inactive: 0.58 | inactive: 0.47 | inactive: 0.662 | inactive: 0.579
31 | RFVVLYDAELT [ERCC4_Y581_YF] | inactive: 1.8 | inactive: 1.87 | inactive: 1.81 | inactive: 1.78 | inactive: 1.78 | inactive: 1.9
32 | TFVVLYDAELT [ERCC4_Y581_R576T_YF] | inactive: 2.66 | inactive: 2.64 | inactive: 2.56 | inactive: 2.41 | inactive: 2.66 | inactive: 2.58
33 | VDTFWYKLLKR [EPM2A_Y86_F88L] | inactive: 0.465 | inactive: 0.582 | inactive: 0.579 | inactive: 0.517 | inactive: 0.493 | inactive: 0.646
34 | PYSNSYENSLI [EPOR_Y489_P488S] | inactive: 1.71 | inactive: 1.44 | inactive: 1.7 | inactive: 1.29 | inactive: 1.24 | inactive: 1.62
35 | ALRASYTPSPV [ESS2_Y418_A423V] | inactive: 0.864 | inactive: 0.896 | inactive: 0.776 | inactive: 0.767 | inactive: 0.838 | inactive: 0.913
36 | SCTFTCLLGDR [ETHE1_Y38_Y38C] | inactive: 2.81 | inactive: 2.82 | inactive: 2.84 | inactive: 2.29 | inactive: 2.7 | inactive: 2.69
37 | EKHGQYLIGHG [EPHB4_Y581_D576E] | inactive: 1.22 | inactive: 0.825 | inactive: 0.864 | inactive: 0.792 | inactive: 0.785 | inactive: 0.808

Reference: the supplement of paper PMC10369915
